Source: publication PMC4336329 (PLoS ONE, 2015)
Among all 310,000 compounds or so, about 2,200 (0.71%) showed an effect of 50% or more. Effects have a minus sign here. The list shows a part of the results.

Target: human ether-à-go-go-related gene (hERG) potassium channel (human, UniProt Q12809)
Assay: primary screen, population patch clamp on CHO cells stably expressing hERG

Chain of human ether-à-go-go-related gene (hERG) potassium channel (Q12809 whole entry, looked up): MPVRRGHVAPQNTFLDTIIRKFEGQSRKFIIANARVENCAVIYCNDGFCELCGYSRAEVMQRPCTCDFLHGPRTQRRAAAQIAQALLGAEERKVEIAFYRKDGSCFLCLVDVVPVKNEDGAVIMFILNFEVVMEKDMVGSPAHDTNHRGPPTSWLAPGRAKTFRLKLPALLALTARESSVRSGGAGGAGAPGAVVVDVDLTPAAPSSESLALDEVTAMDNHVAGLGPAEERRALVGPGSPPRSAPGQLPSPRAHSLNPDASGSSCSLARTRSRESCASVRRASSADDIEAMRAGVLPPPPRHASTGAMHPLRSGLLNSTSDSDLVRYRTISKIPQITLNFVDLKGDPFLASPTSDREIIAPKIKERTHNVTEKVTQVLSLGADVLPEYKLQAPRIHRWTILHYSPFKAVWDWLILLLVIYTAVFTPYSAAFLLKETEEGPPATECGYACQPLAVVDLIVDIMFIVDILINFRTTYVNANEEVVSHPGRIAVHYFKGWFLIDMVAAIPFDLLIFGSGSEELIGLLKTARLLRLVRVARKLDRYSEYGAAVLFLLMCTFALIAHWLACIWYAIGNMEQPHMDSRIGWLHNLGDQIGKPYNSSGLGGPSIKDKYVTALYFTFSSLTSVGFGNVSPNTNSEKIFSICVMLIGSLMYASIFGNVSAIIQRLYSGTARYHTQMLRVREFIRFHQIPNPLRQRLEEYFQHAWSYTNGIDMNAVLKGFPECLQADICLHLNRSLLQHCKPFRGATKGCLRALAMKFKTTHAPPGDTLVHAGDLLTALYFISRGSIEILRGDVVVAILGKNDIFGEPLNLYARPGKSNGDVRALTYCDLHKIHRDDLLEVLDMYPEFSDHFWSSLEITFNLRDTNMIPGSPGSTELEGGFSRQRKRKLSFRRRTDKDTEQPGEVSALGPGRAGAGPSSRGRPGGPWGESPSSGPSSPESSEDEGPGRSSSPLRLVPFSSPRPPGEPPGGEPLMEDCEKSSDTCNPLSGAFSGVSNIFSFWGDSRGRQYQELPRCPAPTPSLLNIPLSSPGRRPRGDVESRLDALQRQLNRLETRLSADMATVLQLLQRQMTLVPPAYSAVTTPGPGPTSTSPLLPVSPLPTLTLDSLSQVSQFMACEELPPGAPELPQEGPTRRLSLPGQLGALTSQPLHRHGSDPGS

Compound | hERG current change (%, negative = inhibition) at 1uM [%]
COC(=O)CCC(=O)OC1(C)C(=O)C=C2C=C(C3CC3)N(Cc3ccc(OC)cc3)C=C2C1=O (stereo not shown) | 16.6
O=c1[nH]cnc2c1ncn2[C@@H]1C[C@@H](O)[C@H](CO)O1 | 15.9
COc1cccc(C(=O)Nc2ccc3c(cc2=O)[C@@H](NC(C)=O)CCc2cc(OC)c(OC)c(OC)c2-3)c1 | 10.2
O=C(c1ccccc1)c1cccc(NC(=O)C2CC2)c1 | 12.7
CCOC(=O)N1CCN(C(=O)c2ccc3c(=O)n(CCc4ccccc4)c(=O)[nH]c3c2)CC1 | 14.2
COc1c(N)c2ccccc2[nH]c1=O | -0.187
CC(C)(C)c1cccc(C2(O)C(=O)c3ccccc3C2=O)c1O | 12.8
COc1ccc(-n2nc(C(=O)NCC(=O)N3CCN(c4ccccc4OC)CC3)c3ccccc3c2=O)c(OC)c1 | 8.77
O=C(COc1ccccc1)Nc1nnc(-c2ccco2)o1 | 4.72
COc1ccc(C(C(=O)NCC2CCCO2)N(Cc2ccccc2)C(=O)CNC(=O)c2ccco2)cc1OC (stereo not shown) | 8.02
CCC(c1nnnn1CC1CCCO1)N(CCCO)Cc1cc2cccc(C)c2[nH]c1=O (stereo not shown) | 0.497
CCOc1ccccc1CN1CCNC(=O)C1CC(=O)N(C)Cc1cnccn1 (stereo not shown) | 17.2
COc1ccc(NCC(=O)N/N=C/C=C\c2ccccc2)cc1 | 4.6
COc1ccc(C(=O)C2CCCN(C(=O)c3ccnn3C)C2)cc1OC (stereo not shown) | 14.6
O=C(/C=C/c1ccc(Cl)cc1)N1CCOCC1 | 12.6
COc1ccc(CNC(=O)CN(C(=O)c2snc(C(N)=O)c2N)c2ccc(OC)c(OC)c2)cc1 | 6.47
Cc1ccc(CNc2c(C=O)c(=O)[nH]c3ccccc23)cc1 | 8.25
Cc1ccc2nc(Br)c3c(c2c1)OC(CBr)C3 (stereo not shown) | 7.46
CCOC(=O)CSc1nc(C)cc(C)n1 | 9.72
Nc1nnc(SCC(=O)OCC(=O)Nc2ccc(Br)cc2)s1 | 9.46
Cc1cc(C)c(S(=O)(=O)NCC2CCC(C(=O)NCCCN3CCC(C)CC3)CC2)c(C)c1 (stereo not shown) | -52.9
Cc1cc(C(=O)N/N=C/c2c3ccccc3cc3ccccc23)n[nH]1 | 10.6

Compound | hERG current change (%, negative = inhibition) at 1uM [%]
CCCOC(=O)c1ccc(Cl)c(NC(=O)c2cccnc2)c1 | -2.24
COc1ccc(C2CC(=O)c3ccccc3O2)cc1 (stereo not shown) | 11.5
Cc1snc(S(=O)(=O)Cc2c(Cl)cccc2Cl)c1C#N | 3.68
COc1ccc(-c2noc3c2-c2nc(-c4ccccc4C)sc2CC3)cc1 | 15.4
COc1ccccc1NC(=O)C(C)OC(=O)CC1CCCC1 (stereo not shown) | 3.89
CN(C)S(=O)(=O)c1ccc(C(=O)N2CCN=C2SCc2ccccc2)cc1 | 18.6
O=C(c1nn(Cc2ccccc2)c(=O)c2ccccc12)N1CCN(c2ccccn2)CC1 | -14.5
COc1ccc(S(=O)(=O)Nc2cccc(F)c2C)cc1C(=O)N1CCOCC1 | 18.5
COc1ccc(NS(=O)(=O)c2cccc(-c3n[nH]c(=S)n3Cc3ccccc3)c2)cc1 | 24.5
O=C(O)CCC(NC(=O)OCc1ccccc1)C(=O)O (stereo not shown) | 12
CCOC(=O)c1cc2c(ccn2C)n1CC(=O)N1CCN(c2cccc(C(F)(F)F)c2)CC1 | 5.6
CN(C(=O)Cn1nnc(-c2ccccc2)n1)C1CCS(=O)(=O)C1 (stereo not shown) | 14.8
COc1cccc(N2CCN(c3ncccn3)CC2)c1 | 17.9
CC(=O)NCCc1nc2cc(NC(=O)c3ccccc3)ccc2n1C | -1.25
O=C(N/N=C/c1cc(Br)cc([N+](=O)[O-])c1O)c1ccc(NC(=O)c2ccc(F)cc2)cc1 | 12.4
C/C(=N\OC(=O)c1ccc(OC(C)C)cc1)c1ccc(C)c(C)c1 | 4.2
O=S(=O)(Cc1ccccc1)N1CCc2ccccc21 | -6.02
CCCCOc1ccc(NC(=O)Nc2nnc(C)s2)cc1 | 14.8
Cc1ccc(NC(=O)OCC(F)(F)C(F)F)cc1NC(=O)OCC(F)(F)C(F)F | -10.8
Cc1ccc2c(c1)N(CC(=O)NCCC1=CCCCC1)C(=O)c1cccnc1O2 | 8.18
O=C1C2C3C=CC(C3)C2C(=O)N1c1cccc2ccccc12 (stereo not shown) | 16.2
Cc1[nH]c2ccccc2c1C(=O)COC(=O)Cn1cnc2ccccc21 | 5.78

Compound | hERG current change (%, negative = inhibition) at 1uM [%]
O=C(CN1CCN(Cc2ccc(F)cc2)C1=O)NCc1cccs1 | 10.9
CCc1ccc(N/C(=N/c2nc(C)cc(C)n2)NC(C)=O)cc1 | -12.8
Nc1ncnc2nc(SCC(=O)Nc3ccccc3F)[nH]c12 | 7.53
Cc1ccc(NC(=O)CCC(C(=O)O)N2C(=O)c3ccccc3C2=O)cc1 (stereo not shown) | -5.52
Cc1cccc(Nc2nc(N)nc(CN3CCN(C)CC3)n2)c1 | -5.33
CC1CN(c2cc(=O)n(Cc3ccc(F)cc3)c(=O)[nH]2)CC(C)O1 (stereo not shown) | 8.05
CC(=O)Nc1ccc(Cl)cc1C1COC(=O)C1=N (stereo not shown) | 8.41
Cc1cc(=O)[nH]c(SCc2nnnn2-c2ccc(Cl)cc2)n1 | 6.44
CC(Nc1nc(-c2ccccc2F)nc2ccccc12)c1ccccc1 (stereo not shown) | 8.7
CCOC(=O)c1cccc(NC(=O)CN(C)S(=O)(=O)c2cnc[nH]2)c1 | 17.3
COc1ccc(-c2noc(CN(C)S(=O)(=O)c3ccc(C)cc3)n2)cc1 | -11
C[C@H](NC(=O)c1ccccc1Cl)C(=O)OCC(=O)N1CCN(c2ccccc2)CC1 | 4.48
Cc1nnc(NC(=O)CSc2ccccc2N)s1 | 13.3
Cc1coc(C)c1C(=O)CC1(O)C(=O)N(Cc2ccccc2)c2ccccc21 (stereo not shown) | 8.31
COc1ccccc1C(=O)NCc1ccc(-c2nc3ccccc3s2)cc1 | -9.11
O=C(COC(=O)CNC(=O)c1ccc(Cl)c([N+](=O)[O-])c1)NCC1CCCO1 (stereo not shown) | 3.8
CC(=O)c1ccc(NS(=O)(=O)c2cc3c(cc2C)N(C)CCO3)cc1 | 11.5
CN(C)N=Nc1nc2c([nH]1)c(=O)n(C)c(=O)n2C | 6.51
Cc1ccc(S(=O)(=O)NCC(=O)NCC(=O)OCC(=O)N2CC(=O)Nc3ccccc32)cc1C | 4.07
CCOc1ccc(NC(=O)CN(C)C(=O)CN2C(=O)NC3(CCCC3)C2=O)cc1OCC | 8.23
Cc1ccccc1N1CC(C(=O)Nc2nnc(SCCC3OCCO3)s2)CC1=O (stereo not shown) | 16.7
COc1ccc(S(=O)(=O)Nc2cc(C)on2)cc1 | 13

Compound | hERG current change (%, negative = inhibition) at 1uM [%]
CSc1ccc(CNC(=O)c2c(C)noc2C)s1 | 13.9
Cc1cccc2cncc(OCc3nnc(SC(F)F)n3C)c12 | 3.98
CC1CC2OC(=O)C3(C)CCCC(C)(C23)C1(O)CCc1ccoc1 (stereo not shown) | -3.14
NS(=O)(=O)c1ccc(NC2=CC(c3ccc([N+](=O)[O-])cc3)N(c3ccc(S(N)(=O)=O)cc3)C2=O)cc1 (stereo not shown) | 3.9
Cc1nn(C)c(C)c1N1C(=O)c2cccc3c(Br)ccc(c23)C1=O | 9.1
CCN(CC(=O)NCc1cccs1)C(=O)c1ccc(-c2cccc(C(F)(F)F)c2)o1 | -57.4
O=C(O)CCCCNS(=O)(=O)c1ccc(Cl)c(C(F)(F)F)c1 | 16.2
CN(C)[C@@H]1C(=O)C(C(N)=O)=C(O)[C@@]2(O)C(=O)C3=C(O)c4c(O)cccc4[C@@](C)(O)[C@H]3[C@H](O)[C@@H]12.[Ca] | 3.53
CCCNS(=O)(=O)c1ccc2c(c1)CCCN2C(C)=O | 5.08
Cc1ccc(OCC(=O)NNC(=O)c2ccc3c(=O)n4c(nc3c2)CCC4)cc1 | 13.8
Brc1ccc(-c2nnc(-c3cccnc3)o2)cc1 | 3.32
CSc1nc(O)c(C(c2cccc([N+](=O)[O-])c2)c2c(O)nc(SC)[nH]c2=O)c(=O)[nH]1 | 11.8
Cc1ccnc2nc(C(=O)N3CCN(S(=O)(=O)c4ccccc4)CC3)nn12 | 13.4
CCOC(=O)N1CCc2c(sc3c2C(=O)NC(c2ccccc2)N3)C1 (stereo not shown) | 13.6
COc1ccc(-c2nc(C#N)c(N3CCC(C(N)=O)CC3)o2)cc1OC | -3.83
CN1CC2=Cc3ccccc3OC23Oc2ccccc2C=C3C1 | -3.81
O=C1CC(C(=O)Nc2ccccc2)N=C(N2CCCCC2)N1 (stereo not shown) | 1.61
COc1ccc(N=Nc2c(C)n[nH]c2C)cc1 | 10.2
C=CCSc1nc2c(sc3nc(C)cc(C)c32)c(=O)[nH]1 | 19.6
O=C(c1cc(S(=O)(=O)N2CCOCC2)ccc1F)N(CCc1ccccc1)Cc1ccccc1 | 5.98
CCC(C)(C)C(=O)Nc1cc([N+](=O)[O-])ccc1Cl | -4.14
CC1CCN(C(=O)COC(=O)c2ccc3c(c2)OCO3)CC1 | 8.66
